About 540 (0.36%) of roughly 150,000 compounds showed an effect of 50% or more. The list shows a part of the results.
The compounds below were run on Plasmodium falciparum (assay: Primary screen in NF54 nanoGlo assay, in single point, at 2uM, 72h; a lower Z score goes with more inhibition). Details: timepoint 72 hour.
Type: functional, Erythrocyte
In the case of `O=C(Nc1nc2c(s1)CCCC2)c1ccc2ccccc2c1`, the “% Inhibition” value is reported as -8% and the Z score is reported as 1.37. `COCc1noc(CN2CC[C@@]3(CCCN(C4CCCC4)C3=O)C2)n1` was tested, and the “% Inhibition” value was -7% and the Z score was 1.03. With `Cc1ccccc1-n1nc([C@H]2CCOC2)nc1-c1ncn[nH]1` the “% Inhibition” value was -7% and the Z score was 1.14. In the case of `CC(C)(c1ccccc1)c1nnc(-c2cnc3onc(C4CC4)c3c2)o1`, the “% Inhibition” value is reported as -17% and the Z score is reported as 3.27. For `CCCN1C(=O)c2c(C(=O)NCc3cccc(C)c3)ncn2C[C@@]1(C)C(=O)NC1CCCC1`, the “% Inhibition” value was -14% and the Z score was 2.71. `CCn1cnc2c(N(C)Cc3cc(OC)ns3)ncnc21` was tested, and the “% Inhibition” value was -8% and the Z score was 1.49. In the case of `COc1ccccc1CCNC(=O)[C@H]1CCCN(S(=O)(=O)c2c(C)nc(O)nc2O)C1`, the “% Inhibition” value is reported as 7% and the Z score is reported as -1.1. For `CN(Cc1cccc2cccnc12)C(=O)c1cc2cc(C3(O)CCN(CC(C)(C)C)CC3)ccc2o1`, the “% Inhibition” value was 8% and the Z score was -1.03. In the case of `COC[C@H](C)NS(=O)(=O)c1cccc(F)c1`, the “% Inhibition” value is reported as 4% and the Z score is reported as -0.57. For `CCCCOC1CC(N(C)C(=O)c2ccc(=O)n(CC)n2)C1(C)C` (stereo unspecified), the “% Inhibition” value was -9% and the Z score was 0.97. `Cc1cc(-n2nc(C)cc2NC(=O)Cc2ccon2)nc(C)n1` was tested, and the “% Inhibition” value was 5% and the Z score was -1.05. With `CC(=O)N1CCN(C(=O)c2cc(N3C(=O)CCS3(=O)=O)ccc2Cl)CC1` the “% Inhibition” value was 3% and the Z score was -0.54. `Cc1cc(C)c(S(=O)(=O)NCCc2cnoc2)s1` was tested, and the “% Inhibition” value was -7% and the Z score was 1.09. For `COc1ccc(CC(=O)Nc2ccc(N3CCN(C4CCCC4)C3=O)nc2)cc1`, the “% Inhibition” value was -2% and the Z score was 0.22. In the case of `CC(C)[C@@H]1NC(=O)[C@@H]2C[C@H](NC(=O)c3cccnc3Oc3ccc(Cl)cc3)CN2C1=O`, the “% Inhibition” value is reported as -21% and the Z score is reported as 2.39. For `Cc1oc(-c2ccccc2)nc1CN1CCC[C@H](c2nnc(N)o2)C1`, the “% Inhibition” value was -4% and the Z score was 0.7. `COC(=O)c1ccc(N2CCN(C(=O)[C@]3(C)CCCCO3)CC2)cc1` was tested, and the “% Inhibition” value was 17% and the Z score was -2.99. `CCc1nc(CC)n(Cc2nc(C)c(C)s2)n1` was tested, and the “% Inhibition” value was 2% and the Z score was -0.22. For `CCCCc1nc(CN2CCC(CCC(=O)NCc3ccc(F)cc3)CC2)c[nH]1`, the “% Inhibition” value was -2% and the Z score was 0.34. In the case of `Cc1ccc(Cc2nc(N3CCCN(C(=O)Nc4ccc(F)cc4F)CC3)c3c(-c4cccnc4)noc3n2)cc1`, the “% Inhibition” value is reported as -8% and the Z score is reported as 0.9. `CCN(CCc1nc2ccccc2[nH]1)C(=O)NC1CCN(C(C)C)CC1` was tested, and the “% Inhibition” value was -13% and the Z score was 1.65. For `NC(=O)Cc1nc(C2(c3ccc(Cl)cc3)CCC2)n(CCO)n1`, the “% Inhibition” value was -11% and the Z score was 1.45. For `Cc1ncc2n1CCC(C(=O)N1CCCC(CNC(=O)c3ccccc3)C1)C2` (stereo unspecified), the “% Inhibition” value was -8% and the Z score was 1.72. `Cc1nc(CC(=O)N2CCC3(CCOCC3)C2)cs1` was tested, and the “% Inhibition” value was -4% and the Z score was 0.49. `FC(F)Cn1cc(CN2CCc3n[nH]c(C(F)F)c3C2)cn1` was tested, and the “% Inhibition” value was -8% and the Z score was 1.2. In the case of `CCN(C(=O)NCCc1nc2ccccc2c(=O)[nH]1)[C@H]1CCS(=O)(=O)C1`, the “% Inhibition” value is reported as 1% and the Z score is reported as -0.16. For `Cc1ccc2cc(CN3CCN(C(N)=O)CC3)c(=O)[nH]c2c1`, the “% Inhibition” value was -8% and the Z score was 0.97. For `COc1cccc2cc(C(=O)N3CCC(Oc4cc(C)n(C)c(=O)c4)CC3)oc12`, the “% Inhibition” value was 1% and the Z score was -0.19. In the case of `O=c1[nH]c(CN2CCCCCCC2)nc2ccccc12`, the “% Inhibition” value is reported as -7% and the Z score is reported as 1.09. In the case of `O[C@@H]1CC[N+](Cc2ccccc2)(Cc2ccccc2)O1`, the “% Inhibition” value is reported as -14% and the Z score is reported as 1.38. With `Cn1nc(C(=O)NCCN2CCCOC2=O)cc1-c1ccccc1` the “% Inhibition” value was -24% and the Z score was 4.73. With `O=C(CCc1ccccc1)Nc1ccc(-n2nn[nH]c2=O)cc1` the “% Inhibition” value was 38% and the Z score was -1.49. `Cc1cccc(NC(=O)[C@@H]2CCCCN2C(=O)OC(C)(C)C)c1C` was tested, and the “% Inhibition” value was 4% and the Z score was -0.63. `Cc1c(C#N)c(-c2cccnc2)c(C)n1C` was tested, and the “% Inhibition” value was -3% and the Z score was 0.54. With `COc1ccc2c(c1)OC(C)(C)CN(C(=O)Nc1ccncn1)C2` the “% Inhibition” value was 2% and the Z score was -0.16. In the case of `O=C(NCc1ccccc1Cl)c1csc(-c2ccnc(N3CCOCC3)c2)n1`, the “% Inhibition” value is reported as 4% and the Z score is reported as -0.65. `Cc1noc([C@@H]2CN(C(=O)C3CCCCC3)CCCN2CC(C)C)n1` was tested, and the “% Inhibition” value was 0% and the Z score was -0.04. In the case of `O=C(NCCN1CCOCC1)c1cc2c(ccc3ccccc32)o1`, the “% Inhibition” value is reported as -6% and the Z score is reported as 1.25. `COc1ccc(OC)c2c1cc1n2CC(C)(C(=O)NC2CCCC2)N(CC(C)c2ccccc2)C1=O` (stereo unspecified) was tested, and the “% Inhibition” value was 1% and the Z score was -0.12. For `COc1ccc(Cc2nnc(C3CCN(CC(=O)NCc4ccccc4)CC3)s2)cc1`, the “% Inhibition” value was -14% and the Z score was 2.7. With `CN(C)c1cccc(S(=O)(=O)NCC#N)c1` the “% Inhibition” value was 9% and the Z score was -1.12. For `CCc1ccc(-c2c(-c3ccccc3)ncn2CCN2CCC[C@H](CO)C2)o1`, the “% Inhibition” value was -2% and the Z score was 0.22. With `CCc1nsc(N2CCCN(C)C[C@@H]2CC)n1` the “% Inhibition” value was -5% and the Z score was 0.59. With `CC(C)Cc1cc(CNCc2ccc(Cl)s2)on1` the “% Inhibition” value was -1% and the Z score was 0.19. For `O=C(Nc1ccc2c(c1)C(O)=Nc1cccnc1O2)C1CCCCC1`, the “% Inhibition” value was 25% and the Z score was -3.72. For `CN(Cc1cnn(-c2ccccc2)n1)c1ncnc2[nH]ncc12`, the “% Inhibition” value was 33% and the Z score was -0.4. `CC12CCC(C(=O)Nc3cccnc3)(C(=O)C1=O)C2(C)C` (stereo unspecified) was tested, and the “% Inhibition” value was 0% and the Z score was 0. With `CO[C@@H](C)c1ccc(-c2cc(C(=O)O)cc(S(=O)(=O)N3CCOCC3)c2)cc1` the “% Inhibition” value was -17% and the Z score was 1.88. `C[C@]1(CNC(=O)c2cc(F)cc(Br)c2)CCC(=O)N1` was tested, and the “% Inhibition” value was 5% and the Z score was -0.72. For `CN(C)C(=O)c1n[nH]c2c1CN(C(=O)c1cccc(Br)c1)CC2`, the “% Inhibition” value was 13% and the Z score was -2.03. For `COc1cc(C(=O)N2CCO[C@H](C(=O)N3CCCC3)C2)cc(OC)c1OC`, the “% Inhibition” value was -8% and the Z score was 1.02. For `NC(=O)CCOc1ccccc1NCc1cc2cc(F)ccc2o1`, the “% Inhibition” value was 5% and the Z score was -0.48. For `O=C(NCCC(c1ccccc1)c1ccccc1)c1cn(C[C@H]2CCCO2)nn1`, the “% Inhibition” value was -14% and the Z score was 1.8.
